Assay results as given in PubChem BioAssay AID1030 (National Center for Advancing Translational Sciences (NCATS), 2008).
Values joined by “and” are separate entries in the source; they are usually repeats but may differ in a detail not shown here. Equal entries are not always repeated. Out of some 220,000 compounds screened, about 16,000 (7.3%) were called active. Inconclusive results, whose numbers are uncertain, are shown with a selection of clear calls. Calls follow the shape of the dose curve; as a rule, active = well fitted inhibition curve with a large enough effect (not every such curve was filed as active); inconclusive = small, poorly fitted or top-dose-only effect, or another doubt; inactive = no such curve, though single readings can be large or run the other way. Potencies of inconclusive entries are left out as doubtful fits.

Target: Aldehyde dehydrogenase 1A1 (Homo sapiens) (UniProt P00352)
Chain of UniProt P00352 (P00352 whole entry, looked up): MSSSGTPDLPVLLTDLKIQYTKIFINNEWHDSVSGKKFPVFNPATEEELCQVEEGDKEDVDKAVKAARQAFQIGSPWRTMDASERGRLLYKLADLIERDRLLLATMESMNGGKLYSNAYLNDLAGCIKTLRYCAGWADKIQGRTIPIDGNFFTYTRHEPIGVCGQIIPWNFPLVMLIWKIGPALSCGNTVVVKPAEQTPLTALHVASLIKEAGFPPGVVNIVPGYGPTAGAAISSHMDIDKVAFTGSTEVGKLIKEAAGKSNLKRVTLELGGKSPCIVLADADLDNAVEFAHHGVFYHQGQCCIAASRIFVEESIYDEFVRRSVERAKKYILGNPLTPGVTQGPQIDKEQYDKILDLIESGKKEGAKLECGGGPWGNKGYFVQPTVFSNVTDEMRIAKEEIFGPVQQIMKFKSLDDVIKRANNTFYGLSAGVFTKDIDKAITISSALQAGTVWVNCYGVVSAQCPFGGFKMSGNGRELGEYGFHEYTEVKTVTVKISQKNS
Assay: qHTS Assay for Inhibitors of Aldehyde Dehydrogenase 1 (ALDH1A1);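 as to activity, negative = inhibition: plate controls were no enzyme wells and a reference inhibitor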
Details: Purified ALDH1A1, NADH fluorescence, propionaldehyde substrate; series mostly up to 75.3 µM
Potency is read from the fitted curve at half-maximal effect; tags tell the direction and shape of the fitted curve.

Structure (SMILES)	Potency	activity, negative = inhibition
Cc1nn(C)c(C)c1CCC(=O)O	inactive	–
Cn1c(Cl)nc2ccccc21	inactive	–
COc1ccc(NC(=O)c2cccnc2C(=O)O)c(OC)c1	inconclusive [inhibitor, partial curve]	–
Nc1ccc(C(=O)N/N=C\C=C\c2cccc([N+](=O)[O-])c2)cc1	inconclusive [inhibitor, single point]	–
COc1ccc(Cn2nnnc2C(c2cccs2)N2CCN(c3ccccc3)CC2)cc1 (centres undefined)	inactive	–
CC(N=Cc1cc([N+](=O)[O-])ccc1O)c1ccccc1 (centres undefined)	inconclusive [inhibitor, single point]	–
COCCn1nnnc1C(c1cc2cc(OC)ccc2[nH]c1=O)N1CCC(Cc2ccccc2)CC1 (centres undefined)	inconclusive [inhibitor, partial curve]	–
CC(=O)N(/N=C1\Sc2ccccc2C1=O)c1cccc(C)c1	inconclusive [inhibitor, single point]	–
COc1ccc(NC(=S)NNC(=O)c2nnn(-c3ccccc3)c2C)cc1	inconclusive [inhibitor, single point]	–
CCOc1ccc(/C=N/N(C)c2ccccc2)cc1OC	active: 7.94 µM	–
N#Cc1nc(-c2ccccc2F)oc1NCc1ccccc1	inconclusive [inhibitor, partial curve]	–
O=C(COC(=O)c1cccs1)Nc1ccccc1[N+](=O)[O-]	inactive	–
O=C(NNc1c2ccccc2nc2ccccc12)c1cccc(O)c1	inconclusive [inhibitor, single point]	–
COC(=O)c1[nH]c2ccc(F)cc2c1NC(=O)CCN1CCN(C(=O)c2ccco2)CC1	inconclusive [inhibitor, single point]	–
CC(=C/C(=O)O)/C=C/c1ccco1	inconclusive [inhibitor, single point]	–
N#CC1=C(N)Oc2n[nH]c(-c3ccccc3)c2C1c1ccsc1 (centres undefined)	inactive	–
Cc1c(NC(=S)Nc2cccc(Cl)c2)c(=O)n(-c2ccccc2)n1C	inactive	–
Cc1cc(C)cc(OCC(=O)Nc2cccc(-c3nnc(-c4ccco4)o3)c2)c1	inconclusive [inhibitor, single point]	–
Cc1ccc(SCc2[nH]nc3c2C2(C(=O)Nc4ccc(F)cc42)C(C#N)=C(N)O3)cc1 (centres undefined)	active: 2.24 µM	–
Cc1ccccc1NC(=O)C(=Cc1ccc(C(=O)O)cc1)C(=O)Nc1ccccc1C	inactive	–
CCCCCn1c(CN2CCN(CCO)CC2)nc2c1c(=O)n(C)c(=O)n2C	inconclusive [inhibitor, partial curve]	–
Cn1cc(-c2nc3cncnc3n(CCN)c2=O)c2ccccc21	inconclusive [inhibitor, single point]	–
CCc1ccc(CN(C)Cc2nc(COc3ccccc3)no2)nc1	inactive	–
CC1(C)C(=O)Nc2ccccc2N1C(=O)COc1ncnc2ccccc12	inconclusive [inhibitor, single point]	–
CCc1cc2c(-c3ccccc3)cc(=O)oc2c(CN2CCOCC2)c1O	inconclusive [inhibitor, single point]	–

Structure (SMILES)	Potency	activity, negative = inhibition
Cc1cc(NC(=O)c2cc(-c3cccs3)on2)no1	inconclusive [inhibitor, single point]	–
Cc1cc(C)cc(NC(=O)c2cnn(-c3ccccc3)c2C2CCNCC2)c1	inconclusive [inhibitor, single point]	–
COc1ccc(C2/C=C\CN(C(=O)OCC3c4ccccc4-c4ccccc43)CC(=O)N2Cc2cccc(F)c2)cc1 (centres undefined)	inactive	–
Cc1occc1C(=O)NCc1ccccc1F	active: 10 µM	–
COc1ccc(-c2nc(NC(=O)C3=NN(c4cccc(C)c4)C(=O)CC3)sc2C)cc1	inactive	–
CC(/C=N/NC(=O)Cn1cnc2c1c(=O)n(C)c(=O)n2C)=C\c1ccccc1	inactive	–
COC(=O)c1[nH]c2ccccc2c1NC(=O)CN1CCC(C(N)=O)(N2CCCCC2)CC1	inconclusive [inhibitor, partial curve]	–
CN(CC(=O)N1CCc2[nH]c3ccc(F)cc3c2C1)CC1OCCO1	inconclusive [inhibitor, single point]	–
CC(C)=CCC/C(C)=C/COc1c2occc2cc2ccc(=O)oc12	active: 8.91 µM	–
CC1CCc2c(sc3nc(CN4CCOCC4)nc(N4CCc5ccccc5C4)c23)C1 (centres undefined)	inconclusive [inhibitor, single point]	–
CCCOC(=O)c1c(NC(=O)C2C3C=CC(C3)C2C(=O)O)sc2c1CCC(C)C2 (centres undefined)	active: 10 µM	–
CC1CC(C)CN(C(=O)c2ccc(CSc3nc4ccncc4[nH]3)cc2)C1 (centres undefined)	inactive	–
O=C(c1ccccc1)N1CCN(C(=S)NCc2ccco2)CC1	inconclusive [inhibitor, single point]	–
Fc1cccc(Nc2cc(-n3cccn3)ncn2)c1	inactive	–
Cc1cccc(NCCC(=O)c2ccc(Br)cc2)c1	active: 0.794 µM	–
Cc1nn(-c2cc(C)c3ccccc3n2)c2c1C1C(C2)C1(C)C (centres undefined)	inconclusive [inhibitor, single point]	–
N#CC(C#N)=C(N)/C(C#N)=C/c1ccc2[nH]ccc2c1	active: 15.8 µM and active: 12.6 µM	–
COC1CCCCC1Nc1ccc(C)c(C)c1 (centres undefined)	active: 10 µM	–
COc1ccc(S(=O)(=O)Nc2cccc(C(C)=O)c2)cc1Br	active: 31.6 µM	–
CC(C)(C)n1nc2c(c1NC(=O)c1ccc(S(=O)(=O)N3CCCC3)cc1)CS(=O)C2 (centres undefined)	inconclusive [inhibitor, partial curve, poor fit]	–
COc1ccc(S(=O)(=O)n2cnc(C)c2)cc1	inactive	–
O=C(CCSc1nc(-c2ccc3c(c2)OCO3)cc(C(F)(F)F)n1)NCc1ccco1	inconclusive [inhibitor, partial curve]	–
Cc1ccc(NS(=O)(=O)c2cc(C(=O)O)ccc2Cl)cc1	inactive	–
Cc1cc(C)cc(OCC(=O)N/N=C/c2ccco2)c1	inactive	–
COc1ccc2nc(/C=N/NC(=O)[C@H](C)NC(=O)OC(C)(C)C)ccc2c1	inconclusive [inhibitor, partial curve]	–

Structure (SMILES)	Potency	activity, negative = inhibition
COCCNc1c(-c2ccc(OC)cc2)nc2ccc(Cl)cn12	inactive	–
CC(C)n1nnnc1SCC(=O)Nc1ccc2c(c1)OCO2	inconclusive [inhibitor, single point]	–
CC(C)CCN(C)c1ccc(/C=N/n2cnnc2)cc1	inconclusive [inhibitor, partial curve]	–
Cc1ccc(NC(=O)CN(C)CC(=O)Nc2ccccc2Oc2ccccc2)cc1	inconclusive [inhibitor, single point]	–
COc1ccc(C(=O)NC(=S)NCc2ccccc2)cc1OC	inconclusive [inhibitor, single point]	–
Cc1ccc(NC(=O)c2ccc([N+](=O)[O-])cc2Cl)nc1	inactive	–
CCOc1ccc(S(=O)(=O)NCCC(=O)OC(C)C(=O)N2CCc3ccccc32)cc1 (centres undefined)	inconclusive [inhibitor, single point]	–
O=C(NCCc1c[nH]c2ccccc12)[C@@H]1C[C@H]1[C@@H](NP(=O)(c1ccccc1)c1ccccc1)c1ccccc1	inactive	–
CCn1c(SCC(=O)N2CCOCC2)nc2c(c1=O)SC(C)C2 (centres undefined)	inactive	–
Cc1cccc(-n2c(C)cc(/C=N\NC(=O)c3ccco3)c2C)c1	inconclusive [inhibitor, single point]	–
C=CCNC(=O)c1ccc2nc(-c3ccccc3)c(-c3ccccc3)nc2c1	inconclusive [inhibitor, single point]	–
CC1Cc2ccccc2N1C(=O)c1cc2sccc2n1Cc1ccc(F)cc1 (centres undefined)	inactive	–
Cc1ccc2nc(SCC(=O)NCc3ccco3)c(C#N)cc2c1	inactive	–
COCCn1c(/C=C/c2ccccc2)nc2ccccc21	inconclusive [inhibitor, partial curve]	–
CCOC(=O)c1ccc(NC(=S)N2CCN(CCN=CC3=C(O)CC(C)(C)CC3=O)CC2)cc1	active: 0.501 µM	–
O=C(/C(=C/O)N=Nc1ccccc1)c1ccc(Cl)cc1	inconclusive [inhibitor, full curve]	–
CC(C)CO/N=C1/C[C@@H](O)[C@@H](O)[C@@H]2[C@@H]3C(=O)N(C4CCCCC4)C(=O)[C@H]3CC[C@H]12	–	inactive: -1.76% [at 13.5 µM]
CCCCn1nc(C(=O)Oc2ccc3c(C)cc(=O)oc3c2)c2ccccc2c1=O	inconclusive [inhibitor, partial curve]	–
O=C(/C=C/c1ccc2c(c1)OCO2)Nc1cc(S(=O)(=O)N2CCOCC2)ccc1N1CCOCC1	inconclusive [inhibitor, single point]	–
CC(=O)Nc1ccc(S(=O)(=O)Nc2nnc(C(C)(C)C)s2)cc1	inconclusive [inhibitor, partial curve]	–
N#Cc1ccc(C(=O)CSc2nnc(-c3ccc(C(F)(F)F)cn3)s2)cc1	active: 35.5 µM	–
O=C1CSC(=S)N1/N=C/C=C/c1ccccc1	inconclusive [inhibitor, single point]	–
CC1(C)Cc2c(sc3[nH]c(=S)n(Cc4ccco4)c(=O)c23)CO1	active: 5.01 µM	–
CC(=O)c1c(C)[nH]c(C(=O)NCc2ccccc2Cl)c1C	inconclusive [inhibitor, single point]	–
